Reference: paper PMC6919601, “Identification of Plasmodium dipeptidyl aminopeptidase allosteric inhibitors by high throughput screening” (PLoS ONE, 2019)
“And” between values parts separate entries of the source, which are not always exact repeats. Identical values can stand only once. The whole screen tested about 110,000 compounds, of which about 230 (0.21%) showed an effect of 50% or more. The list shows a part of the results.

The compounds below were run against DPAP1 (Plasmodium falciparum, UniProt Q8IIJ9) (assay: primary screen, percent inhibition; read by cleavage of a fluorogenic dipeptide substrate; higher = more effect of the substance).
DPAP1, sequence (Q8IIJ9 whole entry, looked up): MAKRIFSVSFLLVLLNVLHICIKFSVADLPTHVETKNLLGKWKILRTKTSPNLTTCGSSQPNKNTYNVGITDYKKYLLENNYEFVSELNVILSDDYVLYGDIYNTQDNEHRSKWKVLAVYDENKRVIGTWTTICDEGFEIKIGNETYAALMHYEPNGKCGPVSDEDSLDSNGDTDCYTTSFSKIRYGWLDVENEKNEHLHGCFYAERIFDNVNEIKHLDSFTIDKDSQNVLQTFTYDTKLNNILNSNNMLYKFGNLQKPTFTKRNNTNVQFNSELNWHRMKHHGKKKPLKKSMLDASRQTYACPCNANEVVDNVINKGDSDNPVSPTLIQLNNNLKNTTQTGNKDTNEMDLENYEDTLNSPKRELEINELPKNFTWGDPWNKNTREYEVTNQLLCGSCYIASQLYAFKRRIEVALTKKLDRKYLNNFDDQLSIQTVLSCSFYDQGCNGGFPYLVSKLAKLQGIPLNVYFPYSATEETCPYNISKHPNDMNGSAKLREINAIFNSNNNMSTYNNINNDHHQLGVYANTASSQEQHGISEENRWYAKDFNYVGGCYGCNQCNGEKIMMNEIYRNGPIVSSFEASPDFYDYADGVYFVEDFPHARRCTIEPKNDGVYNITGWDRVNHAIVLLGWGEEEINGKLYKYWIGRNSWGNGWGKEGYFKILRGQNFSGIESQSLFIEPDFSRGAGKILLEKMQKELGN
Design: species or system P. falciparum D10 trophozoite lysates; single well
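Further: 30 min substrate incubation versus DMSO and 10 µM JCP410 controls.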

Going from O=C(O)c1cc(-c2ccccc2)nn1-c1ccccc1 to CN(Cc1ccccc1)C(=O)c1cccc(C(=O)N(C)Cc2ccccc2)c1, the “% Inhibition @ 10 uM” value rises from -8.51% to -1.22%.

First: COc1cc(/C=C2\SC(=O)N(CC(=O)Nc3ccc(C)cc3)C2=O)cc(OC)c1OC
Second: COc1ccc(/C=C2/SC(=O)N(CC(=O)O)C2=O)cc1Br
The “% Inhibition @ 10 uM” value of the first is lower: 7.17% for the first, 8.71% for the second.

Compared with CSCCC(C(=O)Nc1cccc(C)c1)N1C(=O)c2ccccc2C1=O (centres unmarked), Cc1cc(C)cc(NC(=O)CN2C(=O)c3ccccc3S2(=O)=O)c1 is lower in “% Inhibition @ 10 uM” value: 7.23% for the first, -4.39% for the second.

First: CCC(Oc1ccccc1)C(=O)NCc1ccccc1OC (centres unmarked)
Second: CC(=O)Nc1ccccc1NC(=O)C(C)Oc1ccccc1 (centres unmarked)
The “% Inhibition @ 10 uM” value of the first is lower: 0.161% for the first, 1.62% for the second.

Going from CCOc1ccccc1C1C(C#N)=C(N)Oc2c1c(C)nn2-c1ccc(C)cc1 (centres unmarked) to COc1cccc(C2C(C#N)=C(N)Oc3[nH]nc(C)c32)c1OCc1ccc(Br)cc1 (centres unmarked), the “% Inhibition @ 10 uM” value falls from -4.49% to -5.34%.

Going from COc1ccc(-c2ccc(CCC(=O)O)n2NC(N)=O)cc1 to COc1ccc(OCc2ccc(C(=O)O)cc2)cc1, the “% Inhibition @ 10 uM” value rises from -11% to -2.84%.

Compared with O=C(c1cc(S(=O)(=O)NC2CCCC2)cs1)N1CCCC1, NC(=O)c1cc(S(=O)(=O)N2CCC(c3ccccc3)C2)cs1 (centres unmarked) is higher in “% Inhibition @ 10 uM” value: -1.59% for the first, -1.23% for the second.

First: CS(=O)(=O)Nc1nc2ccc(Cl)cc2s1
Second: CCCCNc1sc(S(=O)(=O)CC)nc1S(=O)(=O)c1ccc(Cl)cc1
The “% Inhibition @ 10 uM” value of the first is higher: 22.1% for the first, 4.33% for the second.

First: O=C1NC(=O)N(c2cccc(Cl)c2)C(=O)/C1=C\Nc1cc(Cl)ccc1O
Second: O=C(CCC(=O)Nc1cccc(Cl)c1)Nc1cccc(Cl)c1
The “% Inhibition @ 10 uM” value of the first is lower: -2.54% for the first, 2.13% for the second.

Compared with CCN1C(C(=O)c2ccccc2)=C(OC(=O)c2ccc(C)cc2)c2ccccc2S1(=O)=O, Cc1ccc(OCC(=O)Nc2cccc3ccccc23)c(C)c1 is lower in “% Inhibition @ 10 uM” value: -1.22% for the first, -1.42% for the second.

Going from COCCCNC(=O)Cn1c(=O)n(CC(=O)NCCc2ccccc2)c(=O)c2sccc21 to O=C(Cn1ncc2c3ccccc3n(Cc3ccccc3)c2c1=O)NCCCN1CCCC1=O, the “% Inhibition @ 10 uM” value rises from 0.628% to 7.91%.

Compared with CC(C)(C)c1ccc(OCCCN2CCCCC2)cc1, CCN(CC)CCCOc1ccc(C)cc1 is lower in “% Inhibition @ 10 uM” value: 3% for the first, 1.13% for the second.

Going from Cc1ccc2c(CNCc3ccccc3C)c(C(=O)O)n(Cc3cccc(F)c3)c2c1 to COc1ccc(CNCc2ccc(OC)c3ccccc23)cc1, the “% Inhibition @ 10 uM” value falls from -4.68% to -8.57%.

First: Cc1cc(-c2nc(-c3ccc(-n4cccc4)cc3)no2)c2ccccc2n1
Second: O=S(=O)(Nc1cccc(O)c1)c1ccc(-c2ccccc2)cc1
The “% Inhibition @ 10 uM” value of the first is higher: 10.6% for the first, -0.294% for the second.

First: Cc1ccccc1NC(=O)C1CCCN1S(=O)(=O)c1ccc(Cl)cc1 (centres unmarked)
Second: CC(C)c1ccccc1OCC(=O)Nc1ccc(S(=O)(=O)N2CCCCCC2)cc1
The “% Inhibition @ 10 uM” value of the first is higher: 3.26% for the first, 0.913% for the second.

Compared with Cc1ccc2cc3cc(C(=O)NCc4ccco4)sc3nc2c1, CCSc1ncc(Cl)c(C(=O)NCc2ccc(C)cc2)n1 is higher in “% Inhibition @ 10 uM” value: -0.984% for the first, 2.19% for the second.

Compared with CC1CCCCC1NCc1ccc([N+](=O)[O-])cc1 (centres unmarked), CN1CCN(S(=O)(=O)c2ccc([N+](=O)[O-])cc2)CC1 is lower in “% Inhibition @ 10 uM” value: 4.38% for the first, -0.856% for the second.

Compared with COc1ccc(C2(C(=O)NC(C)CCc3ccccc3)CCOCC2)cc1 (centres unmarked), CCc1ccc(-c2cc3c(=O)n(CC(=O)NC4CCN(Cc5ccccc5)CC4)nc(C)n3n2)cc1 is higher in “% Inhibition @ 10 uM” value: -0.718% for the first, 3.67% for the second.

Compared with COc1ccc(N2C(C)=Nc3ccc(C)c4nc(C)cc2c34)cc1, CC1(C)N=C(N)N=C(N)N1c1ccc(Oc2ccc(Cl)cc2)c(Cl)c1 is lower in “% Inhibition @ 10 uM” value: 8.05% for the first, -1.42% for the second.

Compared with CCC1CCCCN1CCCNC(=O)c1ccc2c(Cl)c3c(nc2c1)CCC3 (centres unmarked), CCC1CCCCN1CCCNC(=O)C1CC(=O)N(CCc2ccccc2)C1 (centres unmarked) is higher in “% Inhibition @ 10 uM” value: -7.65% for the first, -0.267% for the second.

Going from O=C(Cn1ncc2c1-c1ccccc1OC2)NCCCN1CCc2ccccc2C1 to O=C(CC(c1cccs1)N1Cc2ccccc2C1=O)N1CCc2ccccc2C1 (centres unmarked), the “% Inhibition @ 10 uM” value rises from -7.99% to -4.59%.

First: Cc1cccc(NC(=O)COc2ccc(Cl)cc2)c1
Second: COc1cccc(CN(C(=O)/C=C/c2ccc(Cl)cc2)C2CCS(=O)(=O)C2)c1 (centres unmarked)
The “% Inhibition @ 10 uM” value of the first is higher: 3.24% for the first, 0.155% for the second.

Compared with CCOc1cc(CN2CCN(S(=O)(=O)c3ccc(Cl)cc3)CC2)ccc1OC, Cc1ccc(CCNC(=O)Cn2ccc3cc(S(=O)(=O)N4CCC(C)CC4)ccc32)cc1 is higher in “% Inhibition @ 10 uM” value: -1.6% for the first, -0.899% for the second.

Going from Cc1nc2ccccc2n1CC(=O)NCCN1CCOCC1 to CC1=C(c2ccc(C)c(C)c2)S(=O)(=O)N=C1N1CCC(C(=O)NCCCN2CCOCC2)CC1, the “% Inhibition @ 10 uM” value rises from -3.33% to -1.56%.

Going from CSCCC(/N=C/C1=C(O)OC(C)(C)OC1=O)C(=O)O (centres unmarked) to Cc1nn(C)c(C)c1NC(=O)CCCC(=O)c1ccccc1, the “% Inhibition @ 10 uM” value rises from -3.28% to 1.88%.

Compared with CCCCN(C)CCCNC(=O)c1sc2nc(C)cc(C)c2c1-n1cccc1, Cc1ccc(C(=O)N(CCCN(C)C)c2nc3c(F)cccc3s2)cc1 is higher in “% Inhibition @ 10 uM” value: 0.413% for the first, 4.68% for the second.

First: CCNC(=O)NCc1nc(-c2ccc(Cl)cc2)no1
Second: O=C(Nc1nc(-c2ccc(Cl)cc2)cs1)c1cncc(Br)c1
The “% Inhibition @ 10 uM” value of the first is lower: 3.27% for the first, 6.65% for the second.

Compared with O=C(Nc1ccccc1[N+](=O)[O-])C1=C(O)CCn2c1nc1ccccc12, CCn1c(C)c(C2=CCN(S(=O)(=O)c3cccc4nsnc34)CC2)c2ccccc21 is lower in “% Inhibition @ 10 uM” value: 0.878% for the first, -1.08% for the second.

Going from C=CCOc1ccc(C2C(C(=O)OCC)=C(C)N=c3s/c(=C/c4ccco4)c(=O)n32)cc1OCC (centres unmarked) to Cc1ccccc1-c1cc(C(=O)N[C@@H](CC(C)C)C(=O)NCC#N)sc1-c1ccccc1C, the “% Inhibition @ 10 uM” value rises from -4.74% to -4.72%.

First: CCN(CC)C(C)(C)C#CC(O)(c1ccccc1)c1ccccc1
Second: OC(CC#CCN1CCCC1)(c1ccccc1)c1ccccc1
The “% Inhibition @ 10 uM” value of the first is lower: -10.2% for the first, 0.962% for the second.

Going from COc1ccc(C2=NN(c3cccc(F)c3)C(c3ccc(OC)cc3)C2)cc1 (centres unmarked) to COc1ccc(-c2nc(C3CCCN(S(=O)(=O)c4ccc(OC(F)(F)F)cc4)C3)no2)cc1 (centres unmarked), the “% Inhibition @ 10 uM” value falls from 0.132% to -1.07%.

Compared with O=C1NC(=S)S/C1=C1\C(=O)Nc2ccccc21, CCN(CC)C(=O)Nc1cn(C)c(=O)c2ccccc12 is lower in “% Inhibition @ 10 uM” value: 5.48% for the first, 4.44% for the second.

First: CCC(C)NC(=O)NS(=O)(=O)c1ccccc1Cl (centres unmarked)
Second: Cc1nn(C)c(C)c1S(=O)(=O)N1CCC(C(=O)NCC2COc3ccccc3O2)CC1 (centres unmarked)
The “% Inhibition @ 10 uM” value of the first is lower: -2.51% for the first, 2.39% for the second.

Compared with CO/C(O)=C1\C(C)=NC2=C(C(=O)CCC2)C1c1ccc(Cl)c(Cl)c1 (centres unmarked), COc1cc(NC(=O)c2cccc(Br)c2)c(OC)cc1Cl is lower in “% Inhibition @ 10 uM” value: 4.54% for the first, 0.317% for the second.

Going from O=c1c2cccnc2nc(SCc2cc(=O)n3cc(Cl)ccc3n2)n1Cc1ccccc1 to Cc1ccc2oc3c(c(=O)c2c1)C(c1ccccc1F)N(Cc1ccc2c(c1)OCO2)C3=O (centres unmarked), the “% Inhibition @ 10 uM” value falls from 0.0579% to -1.33%.

Going from CCN(CC)CCNC1=Nc2ccccc2CCC1 to CCC(CC)c1nc(C#N)c(NC(C)c2ccccc2)o1 (centres unmarked), the “% Inhibition @ 10 uM” value falls from -3.93% to -11.7%.

Going from COc1cc2c(cc1OC)CN(C(=O)c1sc3nc4c(c(C(F)(F)F)c3c1N)CCC4)CC2 to COc1ccc(-c2cc(C(F)(F)F)n3nc(C(=O)NCc4cnn(C)c4C)cc3n2)cc1OC, the “% Inhibition @ 10 uM” value falls from 6.69% to 2.32%.

Going from COc1cccc(N2CCN(Cc3cccs3)CC2)c1 to Cc1[nH]c2ccccc2c1CN1CCN(c2ccccc2F)CC1, the “% Inhibition @ 10 uM” value rises from -3.57% to 3.8%.

First: CC(C)CC(C(=O)NCC#N)c1cccc(N2CCN(C)CC2)c1 (centres unmarked)
Second: CC(=O)N1CCN(c2cccc(C)c2C)CC1
The “% Inhibition @ 10 uM” value of the first is lower: -0.0222% for the first, 4.83% for the second.

Compared with CCOc1ccc(C2=Nn3c(nnc3-c3ccccc3Br)SC2)cc1, CCOc1ccc(NC(=O)CSc2nc(C(C)C)ccc2C#N)cc1 is lower in “% Inhibition @ 10 uM” value: -4.01% for the first, -5.34% for the second.

First: CC(C)C(=O)NCC(C)(C)CNC(=O)C(C)C
Second: COc1ccccc1C(=O)N/C(=C\c1ccccc1)C(=O)NC(CC(C)C)C(=O)O (centres unmarked)
The “% Inhibition @ 10 uM” value of the first is lower: 4.11% for the first, 5.55% for the second.

Going from COc1ccc(C(=O)NCC2(c3ccc(OC)c(OC)c3)CCCC2)c(OC)c1 to COc1ccc(-c2c(C)nn3c(N4CC(C)CC(C)C4)cc(C)nc23)cc1OC (centres unmarked), the “% Inhibition @ 10 uM” value falls from 5.55% to -5.58%.

Going from CC(C)(C)Nc1nc(Cl)nc(Nc2ccc(Cl)cc2)n1 to FC(F)(F)c1cc(-c2ccco2)nc(-n2nnc3ccccc32)n1, the “% Inhibition @ 10 uM” value rises from -4.31% to 0.552%.

Compared with Nc1nc(-c2cccc(Br)c2)cs1, CC(=O)c1cccc(NC(=O)Cn2nc(C(F)F)cc2C)c1 is lower in “% Inhibition @ 10 uM” value: 3.95% for the first, -1.78% for the second.

Compared with O=C(c1cccnc1)N1N=C(C(F)(F)F)C2CCCCCC21O (centres unmarked), C/C(=C1\C(=O)N(c2nc3ccccc3s2)N=C1C(F)(F)F)N1CCN(CCO)CC1 is higher in “% Inhibition @ 10 uM” value: -5.15% for the first, -2.07% for the second.

First: CCOC(=O)C1CCN(Cc2ccc(Br)s2)CC1
Second: Cc1cccc(OCCOCCN2CCNCC2)c1C
The “% Inhibition @ 10 uM” value of the first is higher: 1.55% for the first, -3.69% for the second.

Going from C=CCNC(=O)c1cc(-c2ccccn2)nc2ccc(S(=O)(=O)N3CCOCC3)cc12 to O=C(C1COc2cc(S(=O)(=O)N3CC=C(c4ccccc4)CC3)ccc2O1)N1CCCCC1 (centres unmarked), the “% Inhibition @ 10 uM” value rises from -4.97% to -1.02%.

First: CC1CCC(NC(=O)C(C)n2ncn3cccc3c2=O)CC1 (centres unmarked)
Second: O=C(C1CCCN(c2ncnc3c2nc2n3CCCCC2)C1)N1CCC(Cc2ccccc2)CC1 (centres unmarked)
The “% Inhibition @ 10 uM” value of the first is lower: -2.78% for the first, 11% for the second.

In the case of CC(C)C[C@H](N)B1O[C@@H]2C[C@@H]3C[C@@H](C3(C)C)[C@]2(C)O1, the “% Inhibition @ 10 uM” value is reported as -3.14%.

For CC(=O)c1cccc(NS(=O)(=O)c2cc(Cl)ccc2Cl)c1, the “% Inhibition @ 10 uM” value was 0.687% and -6.66%.
